# Data: the supplement of paper PMC11417369
# ± gives the standard deviation of the averaged measurements. The list shows a part of the results.
# System: PfAP2-EXP AP2 domain (GST-tagged)
# Test: gcPBM binding intensity (ln(normalized median fluorescence intensity)); higher = stronger DNA binding
# Procedure, shortened: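 DNA-binding domains from P. falciparum, fused to GST and produced in E. coli, were put on an Agilent 4 × 180k double-stranded probe array for 1 h in 1× PBS holding 1% milk, 0.2 mg/ml BSA, 0.5% salmon testes DNA and 0.03% Triton X-100. Probes were primer-extended, 36 bp long and drawn from intergenic genomic regions, with negative controls included. After Alexa488 anti-GST antibody detection and a 488 nm scan, binding intensity was set as the highest Masliner-normalised natural-log median intensity across replicate spots of either probe orientation.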
row,Sequence,gcPBM binding intensity (ln)
1,ATATAATTTATGTGCACACACTCCTATTTTTAGCTT [CACACA_site50],9.07 ± 0.16
2,AAAAAGTAAAAGAAAGCACACACACCGGTATATATG [CACACA_site9281],8.55 ± 0.61
3,AAAAAAAATTTTATCTGTACACATTTTTTTCTTTTT [XGTACX_site4229],8.65 ± 0.49
4,ATTTATTTATATAATACACACAAATATCTTAATGAA [CACACA_site6064],8.26 ± 0.41
5,ATTTTTTCTAATGGGTGTACTGAAACGTATTTTATT [XGTACX_site6573],8.85 ± 0.4
6,TTATTTTTTCTTTTTTTTCTTACCACAAAAATGGAT [CACACA_negctrl_site362],8.62 ± 0.65
7,ATTTGTAATTATTAAACACACACAAAATATATATAA [CACACA_site8804],8.62 ± 0.52
8,AAAAAAAAAAAAAACACACACATATCTATAATATAT [CACACA_site7481],8.37 ± 0.41
9,TTGTGATTATATAATCGTACATAATTTTAATCACAC [XGTACX_site398],8.45 ± 0.29
10,CAAAACAAAGTTGCCGCACACAGATACGCACCCAAG [CACACA_site3455],8.92 ± 0.52
11,GAATATAAACATATTACACACATCTATATGTACTTT [CACACA_site8582],8.44 ± 0.36
12,GTAATATTATAATATACACACATAGAATATAAATAT [CACACA_site6333],8.7 ± 0.42
13,AAAATACACCAACACACACACATATATATATATATT [CACACA_site4149],8.6 ± 0.38
14,TTCAAGATTTATTATACACACATATTAATATATATA [CACACA_site573],8.48 ± 0.42
15,AGAATAAAAAGGAACACACACACACGCATATAAATA [CACACA_site7659],9.01 ± 0.55
16,TTTTATGATAATTTTGCACACACTTAGGAAAAATTA [CACACA_site1556],8.52 ± 0.23
17,TTTATTTAATTCATTGCATGTAATTTTTGTGTCCAC [TGCATGCA_site677],9.13 ± 0.099
18,TTAAAAAAAAATGGCACACATTTTAATTTTATGTTT [CACACA_site5035],8 ± 0.35
19,AAATTAAAATAATAATTCTACAAATTAATTTATCAT [XGTACX_negctrl_site44],7.97 ± 0.49
20,TATCAAATGTATATATGTACTTATATTTTTTTTATA [XGTACX_site1501],8.39 ± 0.33
21,AATATATTTTCCTGCAAACACACATATAAATGTGTA [CACACA_site532],8.51 ± 0.47
22,TATATTACAAAAAGTACACACATAAATAAATACATA [CACACA_site975],8.85 ± 0.39

row,Sequence,gcPBM binding intensity (ln)
1,ATGCTCAAAAGATATGCATGTACAAATATATGAAAT [TGCATGCA_site592],9.01 ± 0.45
2,GATATAATGTGTTTGGTATTCTTGATAGATAGTTTT [CACACA_negctrl_site1711],8.6 ± 0.49
3,ACATACATACACCCACGTACGTACCGAAACACCACC [XGTACX_site1212],9.11 ± 0.35
4,ATGATGTCTTTATATTGTACATATATGAAGACGTTA [XGTACX_site7751],8.6 ± 0.35
5,TTTAAATAAAATATTACACACTTAGAAAAATATATA [CACACA_site3663],8.38 ± 0.28
6,TTTCTTTTTTTTTTTGTATATTAAATCTAAAAAGGA [TGCATGCA_negctrl_site431],8.18 ± 0.39
7,ACTTCAAAAATAAACTGTACGTAAAAAAAAAAAAAA [XGTACX_site795],8.53 ± 0.56
8,TTTCGTAAAATGAAATGTACTCAAAAGTAAATATAA [XGTACX_site214],8.4 ± 0.29
9,AATAATCATAGTTCTACACACCTATATTGCAAAAAA [CACACA_site867],8.63 ± 0.43
10,TGAGAGAGAAACGTAGTGCATAAAATCAAATTTAGA [GTGCAC_site9737],9.04 ± 0.43
11,GGTTCATATATTAACACACACATACATATTATATAT [CACACA_site2937],8.78 ± 0.39
12,TAATATGTATTTACAAGTACTAACAAAATATTAAAA [XGTACX_site3379],8.35 ± 0.4
13,TACAAAAATAAATGTTGTACTATTATTTATTTCGAT [XGTACX_site1048],8.39 ± 0.38
14,TTATAAAAAATTTTAGTGCATATATGATTTATATAT [GTGCAC_site9831],8.47 ± 0.14
15,TTCATTAAATAGAACAAAATAATAATATAACAACAA [GTGCAC_negctrl_site116],8.74 ± 0.39
16,TTAAAGATATACAAAAGTACTTTTTTTTTCGTCATT [XGTACX_site384],8.32 ± 0.46
17,CCATATCTTTTTTGCACACACTACAATAAAACAAAA [CACACA_site4995],9.035 ± 0.064
18,TGATACTTATGATAAATACACACTTGAAATTAAGGA [CACACA_site1152],8.41 ± 0.5
19,ATGATATACGTAAACACACAAATAAAAAAAATTTAT [CACACA_site7544],8.43 ± 0.56
20,TATATAGCATATTTCACACACACATAATGAATATTA [CACACA_site3546],8.49 ± 0.33
21,TTAAAAAGAAAGTTCACACACATATAGATGACGGAA [CACACA_site7268],8.83 ± 0.4
22,TTTTTTAGTTTTTAGTGTACATAAATAAATAAATAA [XGTACX_site2843],8.46 ± 0.2

row,Sequence,gcPBM binding intensity (ln)
1,CACCCATAAATATACACACGCACAACACAAAATAAA [CACACA_site2903],8.8 ± 0.49
2,ATATATATATATACATGTACAAATGTATAACAAATG [XGTACX_site145],9.98 ± 0.35
3,TTTTTTTACAACATTACACACAAATATTCTGTGTTA [CACACA_site5957],8.72 ± 0.44
4,AACATTTTAAAACAGACACACACCAAAAAAAAAAAA [CACACA_site257],8.45 ± 0.55
5,ATATTACAACATTTTATACACACGTGATTATTAATT [CACACA_site2877],8.78 ± 0.4
6,AGAAAATTAAAAAGAACACACAAATATATATATAAT [CACACA_site5896],8.8 ± 0.49
7,AACAAAAATAATAATCAAATAAATAAATGAAAACAT [CACACA_negctrl_site456],8.71 ± 0.26
8,AATCGTGTTCTGAATACACACTAATACAAATTTGTA [CACACA_site6058],8.66 ± 0.44
9,ATAAATTTATCCAAGTGTACAAAGCTAACATTTTTT [XGTACX_site4399],8.58 ± 0.33
10,CATCCTATTACTTGGTGTACTATTTTATATTGAATA [XGTACX_site1050],8.71 ± 0.29
11,ATAAACAAGACGCAACAAAGTAGAAATTAAAAATAA [CACACA_negctrl_site345],8.8 ± 0.38
12,AAAAATGGAATTATCTGTACATATATAGTTTTTAAA [XGTACX_site5580],8.26 ± 0.38
13,GTTTATAAAATAAGAAGTACTTTATGAGAACCATAT [XGTACX_site5789],8.66 ± 0.45
14,TGGTACCTTACTTTTACACACTTTTTTTTTTTTTTT [CACACA_site1557],8.64 ± 0.61
15,CCATTTTAAATATGCACACAGATGCACTAACACATT [CACACA_site5099],9.1 ± 0.19
16,AATATATACGCATGCGCACACACAAGTGGGAAATTT [CACACA_site1786],9.38 ± 0.35
17,TTTTGAGTAGCCTATTGTACGAACTTTTTAAATACA [XGTACX_site1224],8.38 ± 0.28
18,CTATCTACATAAACGTGTACCCACAAATAAATAAAT [XGTACX_site5210],8.85 ± 0.12
19,TTTTTTAAAAAAGTTTTCTGTATTTATATATATATA [CACACA_negctrl_site31],9.69 ± 0.12
20,TTAACCTTTTGATATTGTACCCATAATCTAATACAA [XGTACX_site769],8.63 ± 0.38
21,TCATATGTATAAATTAGTACATATTTAATGGATATA [XGTACX_site3298],8.39 ± 0.34
22,AAATGAAAATAAAGCAACAGAAATATAATGTATTAT [GTGCAC_negctrl_site508],8.82 ± 0.41

row,Sequence,gcPBM binding intensity (ln)
1,AAAATAATAACATTGTGTACATAAAAAGAAAACCTT [XGTACX_site840],8.7 ± 0.39
2,ACATTTTATACGATAAAATGTATAAGATTATGAAGA [TGCATGCA_negctrl_site476],8.69 ± 0.35
3,AGGCACGTGTTATATACACACATAATCAAATAAACT [CACACA_site7852],8.76 ± 0.56
4,TTATGTCATAAATGCACACATATATATATACATATA [CACACA_site1588],8.69 ± 0.26
5,TATGAATGGTTAAGTACACACATATTAATATATGTA [CACACA_site3490],8.49 ± 0.45
6,TATATTTGGAAATATTCTCAATTGGTACAAATAAAA [CACACA_negctrl_site1202],8.56 ± 0.41
7,GCCCAACCAAAATATACACACAGTTGAATGAATAAA [CACACA_site2597],8.56 ± 0.61
8,TAAAAGAAATATACATGTACATAAATATATATATAT [XGTACX_site1276],9.86 ± 0.2
9,TTGGTAATAATTTGAGGTACACTGTATAAATTTTTT [XGTACX_site909],8.4 ± 0.35
10,ATTTTTTTGTGTTTGGTACACACGTTATAAAAAATA [CACACA_site1345],8.49 ± 0.33
11,AATAATAAATTATGGTGTACGCATTTGTATATATAC [XGTACX_site5417],8.77 ± 0.28
12,TTTTTTTCTTAAAGATGTACTTTTTTAAAATAATCT [XGTACX_site3663],8.54 ± 0.45
13,GGAAAATACATTCCAGTGCATTAATTTATTCAACGT,8.58 ± 0.14
14,TTTTGGATCATTTGTTGTACATATGCAAAAAAAAAA [XGTACX_site3157],8.86 ± 0.47
15,AAAAAAATAAAATTATATAAAATAAATTTTTATAAT [GTGCAC_negctrl_site587],7.75 ± 0.35
16,TATGATACATAATATACATGCATACACAACATTCAG [TGCATGCA_site487],8.74 ± 0.28
17,GATATGTGACGTTTGGTATTTTTGATGTTGGTAGGA [CACACA_negctrl_site1448],8.73 ± 0.46
18,TTTATATATTATTAATGTACAAAATTTTTATTGCAT [XGTACX_site3329],8.7 ± 0.19
19,AATTCTTTTTTCAACACACACACACTAGAAAATATA [CACACA_site5681],8.77 ± 0.53
20,TAAATACAGAAACACACACACAAATATATACATACA [CACACA_site2880],8.75 ± 0.65
21,ACCTGGACAAAAATAAATAAATAAATAAATAAATGA [GTGCAC_negctrl_site238],8.55 ± 0.59
22,ACATTAAGACACATTGCACACGTGCACCCATAGAAA [CACACA_site8029],9.84 ± 1.1
